Assay results from publication PMC7923551 (Proceedings of the National Academy of Sciences of the …, 2021).

Columns and labels:
SARS-CoV-2 M^pro [1] = target: T1, SARS-CoV-2 M^pro (Severe acute respiratory syndrome coronavirus 2, UniProt P0DTD1); details: 4 µM M^pro protein, 10 to 30 µM testing compound (Fig. 1D-H)
SARS-CoV-2 M^pro [2] = target: T1, SARS-CoV-2 M^pro; experiment: thermal shift binding assay; details: 3 µM M^pro protein, 40 µM testing compound (Fig. 1C)
SARS-CoV-2 M^pro [3] = target: T1, SARS-CoV-2 M^pro; experiment: FRET-based enzymatic assay; assay type: biochemical; details: 100 nM M^pro
SARS-CoV-2 M^pro [4] = target: T1, SARS-CoV-2 M^pro; parameters: method as in PMID 33330841; details: with and without reducing reagent 1,4-dithiothreitol (DTT); cited from earlier work
[5] = IC50, in the absence of DTT, 10 µM FRET substrate (Fig. 1B)
[6] = IC50, in the presence of 4 mM DTT, 10 µM FRET substrate (Fig. 1A)

SMILES	binding to M^pro in native MS assay (SARS-CoV-2 M^pro [1])	binding to M^pro in thermal shift assay (SARS-CoV-2 M^pro [2])	pIC50 (SARS-CoV-2 M^pro [3]; [5])	pIC50 (SARS-CoV-2 M^pro [3]; [6])	inhibition of SARS-CoV-2 M^pro and dependence on DTT (SARS-CoV-2 M^pro [4])
CCOc1nc2cccc(C(=O)OC(C)OC(=O)OC3CCCCC3)c2n1Cc1ccc(-c2ccccc2-c2nnn[nH]2)cc1 (stereo not drawn) [candesartan cilexetil]	did not show binding	nor did they bind	< 4.22	< 4.30 and 4.27	
CCN(CC)C(=S)SSC(=S)N(CC)CC [disulfiram]					inhibition was only observed in the absence of reducing reagent
CCOc1nc2cccc(C(=O)O)c2n1Cc1ccc(-c2ccccc2-c2nnn[nH]2)cc1 [candesartan]		nor did they bind	< 4.22	< 4.22	
CCN(CCO)CCCC(C)Nc1ccnc2cc(Cl)ccc12 (stereo not drawn) [hydroxychloroquine]		did not show binding			
COC(=O)N[C@H](C(=O)N[C@@H](Cc1ccccc1)[C@@H](O)CN(Cc1ccc(-c2ccccn2)cc1)NC(=O)[C@@H](NC(=O)OC)C(C)(C)C)C(C)(C)C [atazanavir]		nor did they bind	< 4.22	< 4.22	
CN(C)[C@@H]1C(O)=C(C(N)=O)C(=O)[C@@]2(O)C(O)=C3C(=O)c4c(O)cccc4[C@@](C)(O)[C@H]3[C@H](O)[C@@H]12 [oxytetracycline]		nor did they bind	< 4.22	< 4.22	

pIC50: −log10 of the molar value. Where “and” joins values, the source holds several entries; their conditions need not be identical. Equal entries are not always repeated.
